From PMC6919601, “Identification of Plasmodium dipeptidyl aminopeptidase allosteric inhibitors by high throughput screening” (PLoS ONE, 2019) come the findings set out here.

The structures appear in SMILES notation. The campaign covered roughly 110,000 compounds. About 230 (0.21%) showed an effect of 50% or more. Some of the results follow.
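Further: 30 min substrate incubation versus DMSO and 10 µM JCP410 controls.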

In the assay the target is DPAP1 (Plasmodium falciparum, UniProt Q8IIJ9). The assay can be described thus: primary screen, percent inhibition; read by cleavage of a fluorogenic dipeptide substrate; higher = more effect of the substance. Set-up: species or system P. falciparum D10 trophozoite lysates; single well.
Chain of DPAP1 (Q8IIJ9 whole entry, looked up): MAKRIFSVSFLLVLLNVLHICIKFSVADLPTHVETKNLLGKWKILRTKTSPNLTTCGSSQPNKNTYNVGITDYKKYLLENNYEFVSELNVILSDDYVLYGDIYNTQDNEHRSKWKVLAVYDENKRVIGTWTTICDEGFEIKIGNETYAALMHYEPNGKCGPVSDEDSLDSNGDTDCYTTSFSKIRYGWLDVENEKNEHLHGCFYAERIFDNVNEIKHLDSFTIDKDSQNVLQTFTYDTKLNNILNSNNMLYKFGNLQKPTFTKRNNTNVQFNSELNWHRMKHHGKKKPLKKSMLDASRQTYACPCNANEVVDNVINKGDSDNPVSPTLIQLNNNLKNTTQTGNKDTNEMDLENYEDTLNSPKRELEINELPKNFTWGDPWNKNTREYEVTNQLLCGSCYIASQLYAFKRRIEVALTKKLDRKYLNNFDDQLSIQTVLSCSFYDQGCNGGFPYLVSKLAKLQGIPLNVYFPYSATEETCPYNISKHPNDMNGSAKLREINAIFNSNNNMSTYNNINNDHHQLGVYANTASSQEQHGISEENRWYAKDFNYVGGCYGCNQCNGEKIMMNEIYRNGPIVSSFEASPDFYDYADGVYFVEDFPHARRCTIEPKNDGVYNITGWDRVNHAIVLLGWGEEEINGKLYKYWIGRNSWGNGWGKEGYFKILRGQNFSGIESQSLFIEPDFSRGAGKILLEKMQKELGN
Regarding `NC(=O)c1cccc(S(=O)(=O)N2CCCCC2)c1`, the “% Inhibition @ 10 uM” value was -1.22%.

On to `Cc1cc(C(=O)N2CCOCC2)c2c(C)nn(-c3ccccc3Cl)c2n1`, for which the “% Inhibition @ 10 uM” value came to 2.12%.

On to `Cn1ccnc1SCC(=O)c1ccc(Br)cc1`, for which the “% Inhibition @ 10 uM” value is -9.44%.

Take `COc1ccc(OC)c(C2NC(=O)NC(C)=C2C(=O)OCC(F)(F)C(F)(F)F)c1` (stereo not shown): the “% Inhibition @ 10 uM” value is -4.77%.

For the compound `C=CCN(Cc1cc(OC)ccc1OC)C(=O)Nc1ccccc1`, the “% Inhibition @ 10 uM” value is listed as -0.872%.

Turning to `Cc1nc2ccccc2cc1C(=O)Nc1ccc(Br)cc1`, the “% Inhibition @ 10 uM” value came out at 3.49%.

On to `O=C(NC(c1ccccc1)c1ccccc1)C(c1ccc(Cl)cc1)N1CCOCC1` (stereo not shown), for which the “% Inhibition @ 10 uM” value stood at 18.1%.

Turning to `COc1ccc(C)cc1N(CC(=O)N1CCN(c2ccccc2F)CC1)S(C)(=O)=O`, the “% Inhibition @ 10 uM” value is 1.64%.

Turning to `COc1cc(CN2CCN(Cc3ccccc3Cl)CC2)cc(OC)c1OC`, the “% Inhibition @ 10 uM” value was determined as 18.9%.

As for `COc1ccccc1/C=C/C(=O)c1c(O)nc(C)c2c1CCCC2`, the “% Inhibition @ 10 uM” value is recorded as -2.54%.

For `COc1ccc(CC(=O)Nc2sc(Cc3ccccc3)c(C)c2C(N)=O)cc1`, the “% Inhibition @ 10 uM” value is listed as 0.727%.

With `CCOc1ccc(CCNCc2c(C(=O)O)n(Cc3ccccc3)c3ccccc23)cc1`, the “% Inhibition @ 10 uM” value turned out to be 0.277%.

For `COC(=O)c1ccc(CS(=O)c2ccc(Br)cc2)o1` (stereo not shown), the “% Inhibition @ 10 uM” value is recorded as -1.99%.

For `CS(=O)(=O)N(CC(=O)N1CCN(c2cccc(Cl)c2)CC1)C1CCCCC1`, the “% Inhibition @ 10 uM” value is -3.43%.

Regarding `Cc1nn(Cc2ccc(C(=O)Nc3cccc(C(=O)O)c3)o2)c(C)c1Cl`, the “% Inhibition @ 10 uM” value is 5.05%.

With `Fc1ccc(C2CC(c3cccc(Br)c3)Nc3nnnn32)cc1` (stereo not shown), the “% Inhibition @ 10 uM” value stood at 3.32%.

Regarding `CCCCC1=C(O)C(=O)c2ccccc2C1=O`, the “% Inhibition @ 10 uM” value is reported as 2.26%.

`CCCn1c2ccccc2c2cnn(CC(=O)NC3=NC(=O)CS3)c(=O)c21`: the “% Inhibition @ 10 uM” value is recorded as 3.05%.

Take `O=C(CNCc1ccco1)Nc1cccc(Cl)c1Cl`: the “% Inhibition @ 10 uM” value is listed as -6.24%.

Consider `Cc1cc2nc(-c3ccc(C(=O)O)cc3)[nH]c2cc1C`, for which the “% Inhibition @ 10 uM” value is given as 7.45%.

As to `Cc1ccc(C2CC(=O)N=C(NC(=O)c3ccc(Oc4ccccc4)cc3)N2)cc1` (stereo not shown), the “% Inhibition @ 10 uM” value is -1.28%.

Regarding `COC(=O)c1cccc(NC(=O)COc2ccccc2)c1`, the “% Inhibition @ 10 uM” value was -5.51%.

For the compound `CN(C)c1ccc(/C=C2/Sc3ccccc3C2=O)cc1`, the “% Inhibition @ 10 uM” value is -5.9%.

Regarding `OCC1CCCN(Cc2ccc(Cl)cc2Cl)C1` (stereo not shown), the “% Inhibition @ 10 uM” value worked out at 6.53%.

`CCc1nnc(NC(=O)C2CCCCC2)s1`: the “% Inhibition @ 10 uM” value is reported as 4.82%.

Regarding `Cc1noc(NS(=O)(=O)c2ccc(NC(=O)C(C)Oc3ccc(Cl)cc3Cl)cc2)c1C` (stereo not shown), the “% Inhibition @ 10 uM” value stood at 4.81%.

For the compound `CCCC(C)N1CCN(C(=O)CCCCn2c(=S)[nH]c3c([nH]c4ccc(OC)cc43)c2=O)CC1` (stereo not shown), the “% Inhibition @ 10 uM” value is 13.8%.

As for `CCOC(=O)c1c(C)[nH]c(C)c1S(=O)(=O)NC1CCCc2ccccc21` (stereo not shown), the “% Inhibition @ 10 uM” value was -0.884%.
